Experimental data: patent US7923465B2, “Cannabinoid receptor ligands, pharmaceutical compositions containing them, and process for their preparation” (priority 2005, dated 2011)
The name of at least one read-out is uncertain.

biological target: hCB1 (Homo sapiens, UniProt P21554); assay: In vitro binding assay using hCB1-CHO membranes, [3H]-CP-55,940 displacement (Protocol II); parameters: expressed in transfected cells; host or cells: CHO (hCB1-CHO, generated in-house); conditions: [3H]-CP-55,940 displacement
Protocol: II. Protocol for In Vitro Assay Using hCB1-CHO Membranes
The reaction was set up in a total volume of 200 μl in PEI (Poly(ethyleneimine)) (0.2%) precoated Millipore GFB (Glass Fibre-B) filter plates. 1 mM stocks of test compounds were prepared in DMSO and tested at a final concentration of 300 nM. The non-specific binding was determined by 0.5 μM CP-55, 940. […] The assay mixture (with or without the test compound) was incubated at 37° C. for 1 hour. The reaction was stopped by rapid filtration under vacuum and the radioactivity on the filters was measured by liquid scintillation counting.

Chain of UniProt P21554 (P21554 whole entry): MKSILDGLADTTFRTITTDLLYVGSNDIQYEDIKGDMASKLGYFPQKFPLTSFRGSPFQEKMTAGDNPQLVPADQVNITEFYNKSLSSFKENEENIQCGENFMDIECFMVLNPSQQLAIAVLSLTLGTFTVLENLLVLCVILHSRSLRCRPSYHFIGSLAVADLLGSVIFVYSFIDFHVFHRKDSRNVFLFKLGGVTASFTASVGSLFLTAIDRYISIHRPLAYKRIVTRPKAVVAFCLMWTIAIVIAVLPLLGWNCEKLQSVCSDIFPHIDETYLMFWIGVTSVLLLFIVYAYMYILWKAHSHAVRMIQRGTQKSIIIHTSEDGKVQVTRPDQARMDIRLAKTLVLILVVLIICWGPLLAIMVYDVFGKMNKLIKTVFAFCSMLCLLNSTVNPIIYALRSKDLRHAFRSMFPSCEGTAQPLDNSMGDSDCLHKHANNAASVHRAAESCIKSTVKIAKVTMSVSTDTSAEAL

Compound | % Displacement Protocol II
O=C(NNc1ccccc1Cl)c1nn(-c2ccc(Cl)cc2Cl)c2c1C1CC3CC(C1)CC2C3 [Example 174, N(7)-(2-Chlorophenylamino)-5-(2,4-dichlorophenyl)-5,6-diazatetracyclo[7.3.1.1^3,11.0^4,8]tetradeca-4(8),6-diene-7-carboxamide] | 21.69%
O=C(NNc1ccc(Cl)cc1Cl)c1nn(-c2ccc(Cl)cc2Cl)c2c1C1CC3CC(C1)CC2C3 [Example 175, N(7)-(2,4-Dichlorophenylamino)-5-(2,4-dichlorophenyl)-5,6-diazatetracyclo[7.3.1.1^3,11.0^4,8]tetradeca-4(8),6-diene-7-carboxamide] | 25.7%
O=C(NNc1ccccc1Br)c1nn(-c2ccc(Cl)cc2Cl)c2c1C1CC3CC(C1)CC2C3 [Example 176, N(7)-(2-Bromophenylamino)-5-(2,4-dichlorophenyl)-5,6-diazatetracyclo[7.3.1.1^3,11.0^4,8]tetradeca-4(8),6-diene-7-carboxamide] | 39.34%
O=C(NN1CCCCC1)c1nn(-c2ccc(Cl)cc2Cl)c2c1C1CC3CC(C1)CC2C3 [Example 180, N(7)-piperidino-5-(2′,4′-dichlorophenyl)-5,6-diazatetracyclo[7.3.1.1^3,11.0^4,8]tetradeca-4(8),6-diene-7-carboxamide] | 28.65%
O=C(NCc1ccccc1Cl)c1nn(-c2ccc(Cl)cn2)c2c1C1CC3CC(C1)CC2C3 [Example 185, N7-(2-Chlorobenzyl)-5-(5-chloro-2-pyridyl)-5,6-diazatetracyclo[7.3.1.1^3,11.0^4,8]tetradeca-4(8),6-diene-7-carboxamide] | 51.98%
O=C(NCc1ccccc1)c1n[nH]c2c1C1CC3CC(CC2C3)C1 [Example 186, N(7)-Benzyl-5,6-diazatetracyclo[7.3.1.1^3,11.0^4,8]tetradeca-4(8)-6-diene-7-carboxamide] | 16.13%
O=C(NN1CCCCC1)c1nn(-c2ccccc2)c2c1C1CCC2C1 (stereo not shown) [Example 201, N(3)-Piperidino-1-phenyl-4,5,6,7-tetrahydro-1H-4,7-methano-indazole-3-carboxamide] | 24.91%
O=C(NC1CCCCC1)c1nn(-c2ccccc2)c2c1C1CCC2C1 (stereo not shown) [Example 202, N(3)-Cyclohexyl-1-phenyl-4,5,6,7-tetrahydro-1H-4,7-methano-indazole-3-carboxamide] | 16.53%
O=C(NCc1ccccc1)c1nn(-c2ccccc2)c2c1C1CCC2C1 (stereo not shown) [Example 203, N(3)-Benzyl-1-phenyl-4,5,6,7-tetrahydro-1H-4,7-methano-indazole-3-carboxamide] | 56.51%
O=C(NNc1ccccc1)c1n[nH]c2c1C1(c3ccccc3)CCC2C1 (stereo not shown) [Example 204, N(3)-Phenylamino-4-phenyl-4,5,6,7-tetrahydro-1H-4,7-methano-indazole-3-carboxamide] | 23.84%
O=C(NN1CCCCC1)c1nn(-c2ccccc2Cl)c2c1C1CCC2C1 (stereo not shown) [Example 205, N(3)-Piperidino-1-(2-chlorophenyl)-4,5,6,7-tetrahydro-1H-4,7-methano-indazole-3-carboxamide] | 22.27%
O=C(NC1CCCCC1)c1nn(-c2ccccc2Cl)c2c1C1CCC2C1 (stereo not shown) [Example 206, N(3)-Cyclohexyl-1-(2-chlorophenyl)-4,5,6,7-tetrahydro-1H-4,7-methano-indazole-3-carboxamide] | 15.15%
O=C(NCc1ccccc1)c1nn(-c2ccccc2Cl)c2c1C1CCC2C1 (stereo not shown) [Example 207, N(3)-Benzyl-1-(2-chlorophenyl)-4,5,6,7-tetrahydro-1H-4,7-methano-indazole-3-carboxamide] | 9.39%
O=C(NN1CCCCC1)c1nn(-c2ccc(Cl)cc2)c2c1C1CCC2C1 (stereo not shown) [Example 209, N(3)-Piperidino-1-(4-chlorophenyl)-4,5,6,7-tetrahydro-1H-4,7-methano-indazole-3-carboxamide] | 30.35%
CN(NC(=O)c1nn(-c2ccc(Cl)cc2)c2c1C1CCC2C1)C1CCCCC1 (stereo not shown) [Example 213, N(3)-[(N-Cyclohexyl-N-methyl)amino]-1-(4-chlorophenyl)-4,5,6,7-tetrahydro-1H-4,7-methano-indazole-3-carboxamide] | 17.57%
O=C(Nc1ccccc1)c1nn(-c2ccc(Cl)cc2)c2c1C1CCC2C1 (stereo not shown) [Example 214, N(3)-Phenyl-1-(4-chlorophenyl)-4,5,6,7-tetrahydro-1H-4,7-methano-indazole-3-carboxamide] | 9.01%
O=C(Nc1ccc(Cl)cc1)c1nn(-c2ccc(Cl)cc2)c2c1C1CCC2C1 (stereo not shown) [Example 216, N(3)-(4-Chlorophenyl)-1-(4-chlorophenyl)-4,5,6,7-tetrahydro-1H-4,7-methano-indazole-3-carboxamide] | 34.03%

Compound | % Displacement Protocol II
O=C(Nc1cccc(Br)c1)c1n[nH]c2c1C1(c3ccc(Cl)cc3)CCC2C1 (stereo not shown) [Example 217, N(3)-(3-Bromophenyl)-4-(4-chlorophenyl)-4,5,6,7-tetrahydro-1H-4,7-methano-indazole-3-carboxamide] | 38.55%
COc1ccccc1NC(=O)c1nn(-c2ccc(Cl)cc2)c2c1C1CCC2C1 (stereo not shown) [Example 218, N(3)-(2-Methoxyphenyl)-1-(4-chlorophenyl)-4,5,6,7-tetrahydro-1H-4,7-methano-indazole-3-carboxamide] | 44.41%
CC(C)(C)c1ccc(NC(=O)c2nn(-c3ccc(Cl)cc3)c3c2C2CCC3C2)cc1 (stereo not shown) [Example 219, N(3)-(4-tert-Butylphenyl)-1-(4-chlorophenyl)-4,5,6,7-tetrahydro-1H-4,7-methano-indazole-3-carboxamide] | 59.57%
O=C(NCc1ccccc1)c1nn(-c2ccc(Cl)cc2)c2c1C1CCC2C1 (stereo not shown) [Example 220, N(3)-Benzyl-1-(4-chlorophenyl)-4,5,6,7-tetrahydro-1H-4,7-methano-indazole-3-carboxamide] | 17.92%
O=C(NCc1ccc(Cl)cc1Cl)c1nn(-c2ccc(Cl)cc2)c2c1C1CCC2C1 (stereo not shown) [Example 223, N(3)-(2,4-Dichlorobenzyl)-1-(4-chlorophenyl)-4,5,6,7-tetrahydro-1H-4,7-methano-indazole-3-carboxamide] | 21.5%
O=C(NCc1ccc(Br)cc1)c1nn(-c2ccc(Cl)cc2)c2c1C1CCC2C1 (stereo not shown) [Example 225, N(3)-(4-Bromobenzyl)-1-(4-chlorophenyl)-4,5,6,7-tetrahydro-1H-4,7-methano-indazole-3-carboxamide] | 46.8%
O=C(NCc1ccc(F)cc1)c1nn(-c2ccc(Cl)cc2)c2c1C1CCC2C1 (stereo not shown) [Example 226, N(3)-(4-Fluorobenzyl)-1-(4-chlorophenyl)-4,5,6,7-tetrahydro-1H-4,7-methano-indazole-3-carboxamide] | 72.08%
O=C(NNc1ccccc1)c1nn(-c2ccc(Cl)cc2)c2c1C1CCC2C1 (stereo not shown) [Example 228, N(3)-Phenylamino-1-(4-chlorophenyl)-4,5,6,7-tetrahydro-1H-4,7-methano-indazole-3-carboxamide] | 0%
O=C(NNc1ccc(Cl)cc1)c1n[nH]c2c1C1(c3ccc(Cl)cc3)CCC2C1 (stereo not shown) [Example 229, N(3)-[(4-Chlorophenyl)amino]-4-(4-chlorophenyl)-4,5,6,7-tetrahydro-1H-4,7-methano-indazole-3-carboxamide] | 0.01%
O=C(NNc1ccccc1F)c1nn(-c2ccc(Cl)cc2)c2c1C1CCC2C1 (stereo not shown) [Example 232, N(3)-[(2-Fluorophenyl)amino]-1-(4-chlorophenyl)-4,5,6,7-tetrahydro-1H-4,7-methano-indazole-3-carboxamide] | 1.15%
O=C(NNc1cccc(F)c1)c1nn(-c2ccc(Cl)cc2)c2c1C1CCC2C1 (stereo not shown) [Example 233, N(3)-[(3-Fluorophenyl)amino]-1-(4-chlorophenyl)-4,5,6,7-tetrahydro-1H-4,7-methano-indazole-3-carboxamide] | 10.79%
O=C(NNc1ccc(F)cc1)c1nn(-c2ccc(Cl)cc2)c2c1C1CCC2C1 (stereo not shown) [Example 234, N(3)-[(4-Fluorophenyl)amino]-1-(4-chlorophenyl)-4,5,6,7-tetrahydro-1H-4,7-methano-indazole-3-carboxamide] | 3.33%
O=C(NNc1ccc(F)cc1F)c1nn(-c2ccc(Cl)cc2)c2c1C1CCC2C1 (stereo not shown) [Example 235, N(3)-[(2,4-Difluorophenyl)amino]-1-(4-chlorophenyl)-4,5,6,7-tetrahydro-1H-4,7-methano-indazole-3-carboxamide] | 80.94%
O=C(NC1CCCCC1)c1nn(-c2ccc(Cl)cc2Cl)c2c1C1CCC2C1 (stereo not shown) [Example 237, N(3)-Cyclohexyl-1-(2,4-dichlorophenyl)-4,5,6,7-tetrahydro-1H-4,7-methano-indazole-3-carboxamide] | 80.77%
O=C(NCC1CCCCC1)c1nn(-c2ccc(Cl)cc2Cl)c2c1C1CCC2C1 (stereo not shown) [Example 238, N(3)-Cyclohexylmethyl-1-(2,4-dichlorophenyl)-4,5,6,7-tetrahydro-1H-4,7-methano-indazole-3-carboxamide] | 24.52%
O=C(NN(C1CCCCC1)C1CCCCC1)c1nn(-c2ccc(Cl)cc2Cl)c2c1C1CCC2C1 (stereo not shown) [Example 239, N(3)-(N,N-Dicyclohexylamino)-1-(2,4-dichlorophenyl)-4,5,6,7-tetrahydro-1H-4,7-methano-indazole-3-carboxamide] | 8.09%

same assay, conditions: cell marked @1 / @ 1 μm

Compound | % Displacement Protocol II
O=C(NNc1ccc(Cl)cc1Cl)c1n[nH]c2c1C1(c3ccc(Cl)cc3)CCC2C1 (stereo not shown) [Example 230, N(3)-[(2,4-Dichlorophenyl)amino]-4-(4-chlorophenyl)-4,5,6,7-tetrahydro-1H-4,7-methano-indazole-3-carboxamide] | 72.54@ 1 μm %
